# Source: PubChem BioAssay AID1645882 (National Center for Advancing Translational Sciences (NCATS), 2021)
# Where “and” joins values, the source holds several entries; their conditions need not be identical. Equal values may be shown once. The campaign covered roughly 16,000 compounds. About 120 (0.75%) were called active. Roughly 4% stayed inconclusive and do not appear here. The call rests on the fitted dose curve; in most records, active means well fitted inhibition curve with a large enough effect; inconclusive means small, poorly fitted or top-dose-only effect; inactive means no such curve, though single readings can be large or run the other way. The list shows a part of the results. A structure can be active in one record and inactive in another.
# Biological target: Rap guanine nucleotide exchange factor 3 (Homo sapiens) (UniProt O95398)
# UniProt O95398, sequence (O95398 whole entry, looked up): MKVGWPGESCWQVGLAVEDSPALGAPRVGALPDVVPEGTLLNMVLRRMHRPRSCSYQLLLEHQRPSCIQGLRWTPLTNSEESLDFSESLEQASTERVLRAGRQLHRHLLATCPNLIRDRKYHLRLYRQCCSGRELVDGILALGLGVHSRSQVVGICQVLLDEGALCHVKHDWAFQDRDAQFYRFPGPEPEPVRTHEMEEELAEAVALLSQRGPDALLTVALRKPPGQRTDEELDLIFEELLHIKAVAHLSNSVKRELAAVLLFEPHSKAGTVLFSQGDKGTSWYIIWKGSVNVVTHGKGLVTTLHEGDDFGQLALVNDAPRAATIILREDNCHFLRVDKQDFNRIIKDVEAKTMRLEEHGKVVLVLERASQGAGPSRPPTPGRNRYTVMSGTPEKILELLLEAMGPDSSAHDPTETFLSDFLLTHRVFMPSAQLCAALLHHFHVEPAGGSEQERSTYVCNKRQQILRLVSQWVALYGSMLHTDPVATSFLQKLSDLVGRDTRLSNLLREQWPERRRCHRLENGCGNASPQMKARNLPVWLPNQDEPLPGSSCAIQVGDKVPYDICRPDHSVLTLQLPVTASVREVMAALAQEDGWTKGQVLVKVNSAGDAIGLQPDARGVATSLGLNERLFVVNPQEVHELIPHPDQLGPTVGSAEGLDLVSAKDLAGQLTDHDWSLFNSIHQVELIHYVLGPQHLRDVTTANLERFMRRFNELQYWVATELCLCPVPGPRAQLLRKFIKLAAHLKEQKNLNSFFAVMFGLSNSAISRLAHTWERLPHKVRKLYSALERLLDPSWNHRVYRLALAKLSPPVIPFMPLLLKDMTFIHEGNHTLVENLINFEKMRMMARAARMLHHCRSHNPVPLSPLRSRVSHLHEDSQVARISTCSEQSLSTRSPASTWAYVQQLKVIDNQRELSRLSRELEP
# Assay: Validation qHTS for antagonist of cAMP-regulated guanine nucleotide exchange factor 3 (EPAC1); further: nearly all actives have a fitted effect of over 75% in size;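 on activity change, negative = inhibition: plate controls were DMSO for no effect and ATA control for full effect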
# Conditions: EPAC1 Rap1B-BODIPY-GDP exchange, fluorescence; series mostly up to 150 µM; activity change, negative = inhibition: at the top concentration
# How it was run: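 Nucleotide exchange followed as fluorescence loss when BODIPY-GDP leaves Rap1B (480 nm excitation, 540 nm emission), read at 5 min intervals over 30 min. Reaction: 100 nM EPAC1, 250 nM RAP1B-BODIPY-GDP, 50 uM GDP; ATA and DMSO define normalization.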
# Potency means the concentration at half of the fitted maximal effect.
SMILES,"activity change, negative = inhibition",Potency
O=C(c1csnn1)N1CCC2(CC1)CCN(c1ccncc1)CC2,inactive: -1.32%,–
CSCCC(N)C(=O)O (stereo not drawn),inactive: 21.4%,–
CCCCCCCCCCCCCCCCCCN(CCCCCCCCCCCCCCCCCC)c1ccccc1,inactive: 9.69%,–
O=C(Nc1nccs1)[C@@H]1CC=C[C@@H]2CCN(Cc3ccc(Cl)c(Cl)c3)C(=O)[C@@H]21,inactive: 2.65%,–
CCCCNC(=O)O[C@H]1C[C@@H]2CCN3C(=O)CCC[C@H]([C@H]1Cc1ccccc1)[C@H]23,inactive: 11.1%,–
COC(=O)C1CCCCN1Cc1nc(N2CCCCC2)c2cc(OC)c(OC)cc2n1 (stereo not drawn),inactive: 9.84%,–
O=c1c(CCc2ccccc2)nc2cnc(N3CCNCC3)nc2n1Cc1ccc(F)cc1,inactive: 16.1%,–
Nc1ccc(Cc2ccc(C=O)cc2)cc1,inactive: 9.12%,–
O=C(O)CCC(=O)O,inactive: 2.09%,–
CCO[C@H]1[C@H](NC(=O)c2cccnc2)c2ccccc2C12CCN(C(=O)c1cc(C)n(C)n1)CC2,inactive: 7.04%,–
NC1=NCC2c3ccccc3Cc3ccccc3N12 (stereo not drawn),inactive,–
Cc1nc2cc(NC(=O)[C@@H]3C[C@@H](Sc4ccccn4)CN3Cc3cccc(Cl)c3)ccc2s1,inactive: 0.13%,–
O=C(C[C@H]1C(=O)N(c2ccccc2)C[C@@H]1Cc1ccccc1)Nc1ccccc1,inactive: -22.5%,–
c1ccc2c(Nc3ccncc3)nc(-c3ccc4c(c3)OCO4)nc2c1,inactive: -5.69%,–
CNc1nc(-c2ccc(N(C)C)cc2)nc2ccccc12,inactive: 16%,–
COc1ccc(CN2[C@@H](CC(C)=O)c3cc(C(F)(F)F)ccc3S2(=O)=O)cc1,inactive: -2.84%,–
C=C1C[C@@]23CC4C5[C@@]6(C)C[C@H](O)C[C@@]57C2[C@H](O)[C@@H]1[C@H](O)[C@H]3[C@H]7N4C6,inactive: -3.68%,–
CO[C@H]1[C@H](NC(=O)c2ccco2)c2ccccc2C12CCN(Cc1ccc3cccc(F)c3n1)CC2,inactive: 9.04%,–
COc1ccc(Oc2ncc3nc(C)c(=O)n(Cc4ccc(F)cc4)c3n2)cc1,inactive: -16.2%,–
Cc1c(C(=O)N2CCCCC2)sc2ncnc(NCCc3ccccn3)c12,inactive: -6.58%,–
Cn1c(=O)c(-c2ccccc2)nc2cncnc21,inactive: 13.1%,–
Cc1c(C(=O)NCc2cccc(F)c2)sc2ncnc(NCC3CCCO3)c12 (stereo not drawn),inactive: 9.02%,–
CN(C)Cc1ccccc1-c1nc(NC2CC2)c2ccccc2n1,inactive: -6.94%,–
COc1ccccc1-c1cncnc1NCc1cccnc1,inactive: 18.5%,–
COC(=O)CC1C(C)(C)C(=O)C2CC3C4=CC(=O)OC(c5ccoc5)[C@]4(C)CCC3[C@@]1(C)C2=O (stereo partly drawn),inactive: -1.93%,–

SMILES,"activity change, negative = inhibition",Potency
COc1ccccc1CNc1ncnc2ccc(-c3ccccc3OC)cc12,inactive: -1.19%,–
CN1[C@H](CC(=O)c2ccccc2)CCC[C@H]1C[C@@H](O)c1ccccc1,inactive: 14.6%,–
Cc1[nH]c2ccccc2c1/C=C/c1nccc2ccccc12,inactive: 19.2%,–
COc1ccc(CN2C[C@H](Sc3nc4ccccc4[nH]3)C[C@H]2C(=O)N(C)C)c2ccccc12,inactive: 6.16%,–
CS(=O)(=O)N1CCC2(CC1)CN(Cc1ccccc1)C2,inactive: 6.57%,–
C=C[C@@H]1c2cc(C)ccc2N(S(=O)(=O)c2ccc(C)cc2)[C@H](c2ccccc2)C1(C#N)S(=O)(=O)c1ccccc1 (stereo partly drawn),inactive: -7.48%,–
Cc1cccc(Nc2ccncc2S(=O)(=O)NC(=O)NC(C)C)c1,inactive,–
COc1ccc(C(=O)N2CCC[C@@]3(CCN(c4ncccn4)C3)C2)cc1,inactive: 26.1%,–
O=c1c(CCc2ccccc2)nc2cnc(Nc3ccccc3)nc2n1Cc1cccs1,inactive: 5.16%,–
CN(C)C(=O)c1ccc(-c2cc(NCc3ccccc3)ncn2)cc1,inactive: 12.3%,–
O=S(=O)(c1ccccc1)N1CCC2(CCN(c3ccccc3)CC2)CC1,inactive: 11.6%,–
O=C(O)CCCC[C@@H]1CCSS1,inactive: 13% [at 75.8 µM],–
C=N[C@@H](C(=O)N[C@@H]1C(=O)N2[C@@H]1SC(C)(C)[C@@H]2C(=O)O)c1ccccc1,inactive: 13%,–
CC[N+](CC)(CC(=O)Nc1c(C)cccc1C)Cc1ccccc1,inactive,–
O=C1CCC[C@@H]2C[C@@]3(C[C@@H]4CCN1[C@H]24)Nc1cc(Cl)c(Cl)cc1NC3=NCc1ccccc1,inactive: -16%,–
COc1cc(NS(=O)(=O)c2ccc(N)cc2)nc(OC)n1,inactive,–
COc1cc2ccc(=O)oc2cc1O,inactive,–
CC1(C)O[C@@H]2[C@@H](CO[C@@]3(COS(N)(=O)=O)OC(C)(C)O[C@@H]23)O1,inactive: 13%,–
Cc1cccc(CNc2cc(-c3ccc(C(=O)N(C)C)cc3)ncn2)c1,inactive: 26.1%,–
O=c1c(-c2ccc(F)cc2)nc2cnc(N3CCNCC3)nc2n1-c1ccccc1,inactive: -3.13%,–
O=C1N=C2SCCN2C(=O)C1Cc1ccc(Cl)cc1 (stereo not drawn),inactive: 2.11%,–
c1ccc(CN(CCN(Cc2ccccn2)Cc2ccccn2)Cc2ccccn2)nc1,inactive: 6.37% [at 201 µM],–
CC1(S(=O)(=O)O)CC(=O)c2ccccc2C1=O (stereo not drawn),inactive: -3.24%,–
COc1ncc2ncc(=O)n(C3CC3)c2n1,inactive: -8.92%,–
C[C@]12CC[C@H]3[C@@H](CCC4=CC(=O)CC[C@@]43C)[C@@H]1CC[C@@H]2C(=O)CO,inactive: 2.74% [at 75.8 µM],–

SMILES,"activity change, negative = inhibition",Potency
NCCNC(=O)Cc1ccc(NC(=O)Cc2ccc(Nc3ncnc4c3ncn4[C@@H]3O[C@H](CO)[C@@H](O)[C@H]3O)cc2)cc1,inactive: 18.6%,–
O=C(O)CCCCC1SCC2NC(=O)NC21 (stereo not drawn),inactive: 4.97%,–
O=C1CSC2(CCN(CCCN3c4ccccc4Sc4ccc(Cl)cc43)CC2)N1,inactive: 10.2%,–
Cc1ccc2c(c1)C(=O)[C@@]1(O)CCN(c3ccccc3)C1=N2,inactive: -6.6%,–
O=C1Nc2ccc(I)cc2/C1=C/c1cc(Br)c(O)c(Br)c1,–,active: 89.1 µM and active: 79.4 µM and inactive
CC(=O)N1CCC2(CCCN(C(c3ccccc3)c3ccccc3)C2)CC1,inactive: -5.99%,–
C[C@H](NC[C@H](O)CP(=O)(O)Cc1ccccc1)c1ccc(Cl)c(Cl)c1,inactive,–
O=c1c(-c2ccc(F)cc2)nc2cnc(N3CCOCC3)nc2n1-c1ccccc1,inactive: 12.8%,–
CCn1c(-c2ccccc2F)nc2cc(NC(C)=O)cc(C(=O)N3CCC[C@H]3C(=O)OC)c21,inactive: -2.27%,–
CC1CN(CCNC(=O)C2CCCc3c2[nH]c2ccccc32)Cc2ccccc2O1 (stereo not drawn),inactive: -7.06%,–
Cc1cn([C@H]2C[C@H](N=[N+]=[N-])[C@@H](CO)O2)c(=O)[nH]c1=O,inactive,–
COC(=O)[C@@H](N)CS,inactive: 6.42%,–
COc1ccc([C@@H]2Sc3ccccc3N(CCN(C)C)C(=O)[C@@H]2OC(C)=O)cc1,inactive,–
COC(=O)C1OC(=O)C2O[C@@]23[C@]2(C)C(OC(C)=O)CC4C(C)(C)C(=O)CC[C@]4(C)C2CC[C@@]13C (stereo partly drawn),inactive: 1.05%,–
O=C(Nc1cccc(F)c1)N1CCC2(CC1)CCN(C(=O)c1ccco1)CC2,inactive: 14.8%,–
Cc1ccc(CN2CCOc3ccc(CN4CCC(O)(c5cccnc5)CC4)cc3C2)cc1C,inactive: 4.74%,–
CCCCC[C@H](O)/C=C/[C@@H]1[C@@H](CC(=O)CCCCC(=O)O)[C@@H](O)C[C@H]1O,inactive: -8.76% [at 15.3 µM],–
Cc1onc(-c2c(Cl)cccc2Cl)c1C(=O)NC1C(=O)N2C1SC(C)(C)C2C(=O)O (stereo not drawn),inactive: 15.8%,–
C=C(CO)C1Cc2c(ccc3c2OC2COc4cc(OC)c(OC)cc4C2C3=O)O1 (stereo not drawn),inactive: 11.4%,–
O=C(/C=C/c1ccc(F)cc1)NCC1Cc2cccc(-c3ncccn3)c2O1 (stereo not drawn),inactive: 3.84%,–
COc1ccc2c(c1)C(=O)N(CCc1ccc(S(=O)(=O)NC(=O)NC3CCCCC3)cc1)C(=O)C2(C)C,inactive: 12.5% [at 75.8 µM],–
O=C(Oc1ccccc1)N1CCC2(CCCN(c3ncccn3)C2)CC1,inactive: -2.48%,–
NS(=O)(=O)Cc1noc2ccccc12,inactive: 17.8%,–
CCC1(C2CCN(C(=O)c3cc4ccccc4o3)CC2)NC(=O)N(CCc2scnc2C)C1=O (stereo not drawn),inactive: 8.88%,–
Cc1nc2cnc(N3CCOCC3)nc2n(Cc2cccs2)c1=O,inactive: 24.5%,–

SMILES,"activity change, negative = inhibition",Potency
COc1ccc2[nH]cc(CCNc3nc(-c4cccc(NS(C)(=O)=O)c4)nc4ccccc34)c2c1,inactive: 7.42%,–
CC[C@H](/C=C/[C@@H](C)[C@H]1CC[C@H]2C3CC=C4C[C@@H](O)CC[C@]4(C)C3CC[C@]12C)C(C)C (stereo partly drawn),inactive: 9.97%,–
O=C(c1ccc(N2CCC(NCCCn3ncc4ccccc43)CC2)cc1)N1CCc2ccccc2C1,inactive: 17.5%,–
CN(C)CCN(Cc1ccc(Cl)cc1)c1ccccn1,inactive: -70.6% [at 75.8 µM],–
CC(C[N+](C)(C)C)OC(N)=O (stereo not drawn),inactive,–
CNC(=O)[C@@H]1C[C@H](Sc2nc3ccccc3[nH]2)CN1Cc1cccc(C(F)(F)F)c1,inactive: -4.05%,–
Cc1cc(C(=O)NCc2nc(-c3cccc(NC(=O)c4ccccc4)c3)oc2C)nc(C)n1,inactive: 9.78%,–
CN1CCN(c2ncc3nc(-c4ccc(Cl)cc4)c(=O)n(CCC#N)c3n2)CC1,inactive: 7.46%,–
c1ccc(Nc2cc(-c3ccoc3)ncn2)cc1,inactive: 5.86%,–
CC1CCC2(OC1)OC1CC3C4CCC5CC(O)CCC5(C)C4=CCC3(C)C1C2C (stereo not drawn),inactive: 9.04%,–
CC(C)C[C@@H](CC#N)N1CCN(Cc2ccccc2)CCC1=O,inactive: -3.84%,–
CC[C@@H](C)[C@H](N)C(=O)O,inactive: 16.6%,–
COCc1ccc(CN2Cc3ccccc3OC(c3ccccc3OC)C2)o1 (stereo not drawn),inactive: 12.4%,–
Cc1cc2c(c(-c3cnccn3)c1)OC(CNC(=O)c1cc(C(C)C)[nH]n1)C2 (stereo not drawn),inactive: 5.99%,–
CC(=O)Oc1cc(OC(C)=O)c2c(=O)cc(-c3ccc(OC(C)=O)c(OC(C)=O)c3)oc2c1,inactive: -17.4%,–
COc1cccc(-c2cncnc2NCCc2cnc[nH]2)c1,inactive: -0.604%,–
COc1cc2nc(N3CCN(C(=O)[C@H]4CCCO4)CC3)nc(N)c2cc1OC,inactive: 0.765%,–
COCC(=O)Nc1cc(C(=O)NC2CCc3ccccc32)c2c(c1)nc(-c1ccncc1)n2C (stereo not drawn),inactive: 17.4%,–
CN[C@H]1CCc2cc(OC)c(OC)c(OC)c2-c2ccc(N[C@@H]3CCCCNC3=O)c(=O)cc21,inactive: 6%,–
NCCC(O)(P(=O)(O)O)P(=O)(O)O,inactive: 21.3%,–
COc1ccc(Oc2ncc3nc(C)c(=O)n(-c4ccc(OC)cc4)c3n2)cc1,inactive: 4.42%,–
Cc1cccc2cc(CN(CC3CCCO3)C(=O)C3CC3)c(N(C)C)nc12 (stereo not drawn),inactive: 9.03%,–
COc1ncc2nc(-c3cn(C)c4ccccc34)c(=O)n(C[C@H]3CCCO3)c2n1,inactive: 19.3%,–
